Laboratory results published in PubChem BioAssay AID504339 (National Center for Advancing Translational Sciences (NCATS), 2011).
About 17,000 (4.4%) of roughly 390,000 compounds were called active. The inconclusive results got no clear call from the source; some entries with a clear call stand among them for comparison. Calls come from the whole dose curve; as a rule, active = well fitted inhibition curve with a large enough effect; inconclusive = small, poorly fitted or top-dose-only effect; inactive = no such curve, though single readings can be large or run the other way. Potencies of inconclusive entries are doubtful fits and often do not repeat.
% is set by controls: 0 for no effect and ±100 for the full control effect; potency is the fitted concentration of half-maximal effect; tags give direction and shape of the fitted curve.
Note: nearly all actives have a fitted effect of over 50% in size.

What follows are molecules tested against Lysine-specific demethylase 4A (Homo sapiens) (UniProt O75164) (assay: qHTS Assay for Inhibitors of JMJD2A-Tudor Domain). Details: AlphaScreen JMJD2A-Tudor / H3K4me3 peptide binding; activity change, negative = inhibition: at 114 µM (top of the series).
UniProt O75164, sequence (O75164 whole entry, looked up, the tested form may be a part): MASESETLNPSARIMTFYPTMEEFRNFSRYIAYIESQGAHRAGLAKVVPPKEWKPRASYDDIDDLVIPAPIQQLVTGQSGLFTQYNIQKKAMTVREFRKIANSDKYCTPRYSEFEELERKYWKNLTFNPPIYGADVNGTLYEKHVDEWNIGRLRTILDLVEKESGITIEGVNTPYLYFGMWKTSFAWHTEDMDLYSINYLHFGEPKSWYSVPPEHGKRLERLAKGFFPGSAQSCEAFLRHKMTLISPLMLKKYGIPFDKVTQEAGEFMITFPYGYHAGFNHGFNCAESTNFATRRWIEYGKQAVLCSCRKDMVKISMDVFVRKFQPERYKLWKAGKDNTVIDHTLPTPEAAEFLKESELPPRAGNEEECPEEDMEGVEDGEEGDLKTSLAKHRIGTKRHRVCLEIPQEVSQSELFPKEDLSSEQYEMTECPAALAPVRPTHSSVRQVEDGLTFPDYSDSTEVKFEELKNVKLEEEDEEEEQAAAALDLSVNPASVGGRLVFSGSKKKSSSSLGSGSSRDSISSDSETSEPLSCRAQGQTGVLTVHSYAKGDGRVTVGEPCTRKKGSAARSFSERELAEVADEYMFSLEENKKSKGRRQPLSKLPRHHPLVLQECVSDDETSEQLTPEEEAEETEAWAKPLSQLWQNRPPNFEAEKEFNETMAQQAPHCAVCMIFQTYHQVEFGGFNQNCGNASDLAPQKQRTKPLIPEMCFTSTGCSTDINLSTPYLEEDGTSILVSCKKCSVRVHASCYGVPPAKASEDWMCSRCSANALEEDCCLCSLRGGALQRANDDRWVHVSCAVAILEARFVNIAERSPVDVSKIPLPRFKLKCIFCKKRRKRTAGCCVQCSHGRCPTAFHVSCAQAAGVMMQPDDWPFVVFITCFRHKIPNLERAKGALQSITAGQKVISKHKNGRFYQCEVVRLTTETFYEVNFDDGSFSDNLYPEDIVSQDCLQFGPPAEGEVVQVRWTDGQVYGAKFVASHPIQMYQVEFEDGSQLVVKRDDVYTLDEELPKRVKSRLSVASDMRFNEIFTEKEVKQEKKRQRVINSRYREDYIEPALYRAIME
With `O=[N+]([O-])c1ccc2[nH]c(=S)sc2c1` the Potency was active: 50.1 µM.
`Cc1ccc(C2=NN(C(=O)CSc3nccn3C)C(c3ccco3)C2)cc1` (stereo not given) was tested, and the Potency was inconclusive: 50.1 µM [inhibitor, partial curve].
In the case of `COc1ccc(Cn2nnnc2C(c2ccc(N(C)C)cc2)N2CCC(C(N)=O)CC2)cc1` (stereo not given), the Potency was inconclusive: 63.1 µM [inhibitor, partial curve, poor fit].
`CCOC(=O)CSC(=S)NC(=O)c1ccc(OC)cc1` was tested, and the Potency was inconclusive: 39.8 µM [inhibitor, single point].
`CN1CCN(C(=S)c2ccc(-c3cc(Cl)ccc3Cl)o2)CC1` was tested, and the Potency was active: 35.5 µM.
`CC(=NNC(=S)Nc1cccc(Cl)c1)c1ccccn1` was tested, and the Potency was active: 25.1 µM.
With `CC(=O)/C(N=Nc1ccc2c(c1)OCCO2)=C(\C)O` the Potency was inconclusive: 39.8 µM [inhibitor, partial curve].
In the case of `C=CCOc1ccc(C(=O)N(Cc2ccc(N(C)C)cc2)C2CCS(=O)(=O)C2)cc1` (stereo not given), the Potency was inconclusive: 56.2 µM [inhibitor, partial curve].
With `O=C(N/N=C/c1cc2cc3c(cc2nc1Cl)OCCO3)c1ccccc1O` the Potency was inconclusive: 25.1 µM [inhibitor, single point].
In the case of `Nc1ccc(C(=O)NC2CCSc3ccccc32)cc1[N+](=O)[O-]` (stereo not given), the Potency was inconclusive: 56.2 µM [inhibitor, partial curve].
With `Cc1cc(/C=C\c2nc(O)c([N+](=O)[O-])c(=O)[nH]2)c(C)n1-c1ccccc1` the Potency was active: 56.2 µM.
With `CC(=O)N/C(=N\c1nc(C)cc(C)n1)Nc1ccc2ccccc2c1` the Potency was “inactive”.
In the case of `C/C(=N\NC(=O)C1=NNC(=O)C1C)c1cccs1` (stereo not given), the activity change, negative = inhibition was inactive: -2.26% [at 11.4 µM].
With `CCOc1ccc(NC(=O)CN2C(=O)NC(C)(c3ccc4c(c3)OCCCO4)C2=O)cc1OCC` (stereo not given) the Potency was inconclusive: 56.2 µM [inhibitor, partial curve].
`Cc1ccc(S(=O)(=O)N2CCC[C@H]2C(=O)NC2CCCCC2)cc1` was tested, and the Potency was inconclusive: 39.8 µM [inhibitor, partial curve].
For `COC(CNC(=O)CCc1c(C)nc2c(-c3ccc(F)cc3)c(C)nn2c1C)OC`, the Potency was inconclusive: 39.8 µM [inhibitor, single point].
For `CSCC[C@H](NC(=O)OC(C)(C)C)C(=O)N/N=C/c1cccc2cccnc12`, the Potency was inconclusive: 56.2 µM [inhibitor, single point].
For `N#Cc1nc(COc2ccccc2Cl)oc1NCCc1ccccc1`, the Potency was inconclusive: 28.2 µM [inhibitor, partial curve].
`Cc1ccc(C2Cc3cc(O)c(O)cc3CN2)cc1` (stereo not given) was tested, and the Potency was active: 8.91 µM.
For `COCCNC(=O)C(c1ccc(Cl)cc1)N(CCOC)C(=O)CCC(=O)Nc1ccccn1` (stereo not given), the Potency was “inactive”.
With `Cc1ccc(C)c(OCCC(=O)OCC(=O)NCc2ccccc2)c1` the Potency was “inactive”.
With `CCOC(=O)c1c(C)c(C(=O)NCC2CCCO2)c(C)n1CC` (stereo not given) the Potency was “inactive”.
For `Cc1sc2ncnc(SCC(=O)Nc3ncccc3O)c2c1C`, the Potency was active: 63.1 µM.
In the case of `O=C(CCc1ccccc1)NC(=S)Nc1ccccc1Br`, the Potency was “inactive”.
`Cc1nc2ccc(S(=O)(=O)NC(C(=O)N3CCCC3)C(C)C)cc2s1` (stereo not given) was tested, and the Potency was inconclusive: 39.8 µM [inhibitor, full curve].
`CC1Cc2cc(/C(O)=C3/C(=O)C(=O)N(CCCn4ccnc4)C3c3ccco3)ccc2O1` (stereo not given) was tested, and the Potency was active: 31.6 µM.
For `CNC(=S)N1N=C(c2ccc(Br)cc2)CC1c1ccc(N(C)C)cc1` (stereo not given), the Potency was active: 11.2 µM.
`COc1ccc(C(CNc2ccc(S(=O)(=O)N3CCN(C)CC3)cc2[N+](=O)[O-])N(C)C)cc1` (stereo not given) was tested, and the activity change, negative = inhibition was inconclusive: -46.2% [inhibitor].
`COc1ccccc1C(=O)Oc1cc(C)[nH]c(=O)c1[N+](=O)[O-]` was tested, and the Potency was inconclusive: 35.5 µM [inhibitor, single point].
For `CCC(=O)N=c1sc2c(C)cc(C)cc2n1CC(=O)OC`, the Potency was “inactive”.
With `COc1ccc(OC)c(NC(=O)Cn2c(=O)n(-c3cccc(C)c3)c(=O)c3c2c2cc(C)ccc2n3C)c1` the Potency was “inactive”.
`CCOc1ccc(C(=O)Nc2ccc(CN3CCOCC3)cc2)cc1Br` was tested, and the Potency was inconclusive: 17.8 µM [inhibitor, full curve, poor fit].
`Cc1ccc(/C=N/Nc2ccc(F)cc2F)s1` was tested, and the Potency was “inactive”.
For `COCCNc1nc(-c2ccc(OC)cc2)c(-c2ccc(OC)cc2)s1`, the Potency was inconclusive: 44.7 µM [inhibitor, partial curve].
`Cc1ccccc1NS(=O)(=O)c1ccc2[nH]cc(C(=O)NC3CCCCC3)c(=O)c2c1` was tested, and the Potency was inconclusive: 50.1 µM [inhibitor, partial curve].
For `CCOC(=O)CSc1nc2ccccc2c(=O)n1CC1CCCC1`, the Potency was inconclusive: 3.16 µM [inhibitor, single point].
With `COc1cc(C(C)=O)ccc1OCC(=O)Nc1cc(S(=O)(=O)N2CCOCC2)ccc1N1CCCC1` the Potency was “inactive”.
With `c1ccc(CNc2nc(-c3cccnc3)cs2)cc1` the Potency was inconclusive: 1.12 µM [inhibitor, full curve, poor fit].
In the case of `CC(C)N1CCN(C(=O)c2ccc([N+](=O)[O-])cc2)CC1`, the Potency was active: 79.4 µM.
In the case of `O=C(COC(=O)/C=C/c1cccs1)Nc1nc(-c2ccccc2)cs1`, the Potency was “inactive”.
For `COc1cccc(-c2nc(SCC(=O)Nc3nc(-c4ccccc4)c(C)s3)[nH]c(=O)c2C#N)c1`, the Potency was “inactive”.
For `COc1ccc(S(=O)(=O)Nc2cc(Sc3ncn[nH]3)c(O)c3ccccc23)cc1`, the Potency was active: 5.62 µM.
`COc1ccc(CC(=O)OCC(=O)NCc2ccccc2Cl)cc1OC` was tested, and the Potency was “inactive”.
In the case of `COc1ccc(C2=C(C)C(=NCCCN3CCN(c4cc(Cl)ccc4C)CC3)NS2(=O)=O)cc1`, the Potency was “inactive”.
For `COc1ccc(-n2ncc(C(=O)Nc3ccc4c(c3)OCO4)c2C2CCN(C(=O)OC(C)(C)C)CC2)cc1`, the Potency was inconclusive: 44.7 µM [inhibitor, partial curve].
`O=C(CSC1CCCCC1)Nc1nccs1` was tested, and the Potency was inconclusive: 39.8 µM [inhibitor, partial curve, poor fit].
`CCOC(=O)C1CCCCN1Cc1ccc(OC)c(OC)c1` (stereo not given) was tested, and the Potency was active: 20 µM.
`Cn1c(-c2ccccc2)cnc1NCc1ccccc1O` was tested, and the Potency was active: 28.2 µM.
`NNC(=O)C(=O)NCCCN1CCOCC1` was tested, and the Potency was inconclusive: 39.8 µM [inhibitor, single point].
`c1ccc(CNCc2ccco2)cc1` was tested, and the Potency was “inactive”.
In the case of `COC(=O)CCCCCCCCCC[N+]1(C)CCCCC1`, the Potency was inconclusive: 56.2 µM [inhibitor, single point].
In the case of `NC(=NCc1ccc2c(c1)OCO2)NC(=O)c1ccccc1`, the Potency was inconclusive: 63.1 µM [inhibitor, partial curve].
`COc1ccc(C2NC(=S)N3C(c4ccc(OC)cc4)NC(=S)N23)cc1` (stereo not given) was tested, and the Potency was inconclusive: 7.08 µM [inhibitor, single point].
`CCOc1ccc(-n2c(SCC(N)=O)nnc2-c2ccco2)cc1` was tested, and the Potency was active: 20 µM.
With `O=C1c2cccc(Cl)c2C(=O)c2c1cccc2N1CCCC1` the Potency was inconclusive: 3.16 µM [inhibitor, partial curve].
In the case of `O=C(Nc1nc(-c2cccc(Br)c2)cs1)Oc1ccccc1`, the Potency was “inactive”.
For `Cc1cnc(N=Nc2ccccc2)[nH]1`, the Potency was inconclusive: 3.98 µM [inhibitor, partial curve, poor fit].
With `CC(C)CC(NC=C1C(=O)OC(C)(C)OC1=O)C(=O)O` (stereo not given) the Potency was inconclusive: 89.1 µM [inhibitor, partial curve].
In the case of `Cc1occc1C(=O)N1CCCC(Nc2ccc(F)cc2)C1` (stereo not given), the Potency was “inactive”.
In the case of `CC1(c2ccccc2Cl)NC(=O)N(CC(=O)Nc2ccc(N3CCCCC3)cc2)C1=O` (stereo not given), the Potency was inconclusive: 56.2 µM [inhibitor, partial curve].
In the case of `O=C(Nc1ccc([N+](=O)[O-])cc1)Nc1ccc2[nH]c(=O)[nH]c2c1`, the Potency was inconclusive: 56.2 µM [inhibitor, partial curve].
For `CCOC(=O)C1CCCN(c2c(C(=O)c3ccc(OCC)cc3)cnc3ccccc23)C1` (stereo not given), the Potency was inconclusive: 112 µM [inhibitor, partial curve, poor fit].
In the case of `CC(C)CN(CCCNC(=O)c1cc(-c2cccs2)nc2ccccc12)CC(C)C`, the Potency was “inactive”.
`C/C=C/C(=O)NCCc1ccc(OC)c(OC)c1` was tested, and the Potency was “inactive”.
For `Cc1ccc(S(=O)(=O)Nc2ccc(S(=O)(=O)Nc3nccs3)cc2)c([N+](=O)[O-])c1`, the Potency was inconclusive: 56.2 µM [inhibitor, partial curve, poor fit].
In the case of `Cc1ccc(NC(=O)C2CCCN(S(=O)(=O)c3cccnc3)C2)c(C)c1` (stereo not given), the Potency was “inactive”.
With `Cc1c(NC(=O)c2csc3c2CCCC3)c(=O)n(-c2ccccc2)n1C` the Potency was “inactive”.
For `CCOc1ccc(NC(=O)c2c(NCc3ccc(C)o3)sc3c2CCCCC3)cc1`, the Potency was inconclusive: 50.1 µM [inhibitor, partial curve].
In the case of `N#Cc1ccc(C(=O)Nc2nnc(-c3ccco3)o2)cc1`, the Potency was active: 79.4 µM.
With `Cc1ccnc(OC(C(=O)O)C(OCc2ccccc2)(c2ccccc2)c2ccc(C(F)(F)F)cc2)n1` (stereo not given) the Potency was “inactive”.
In the case of `CCC(CC)C(=O)NN(C(=O)c1ccncc1)C1CC(=O)N(c2ccccc2)C1=O` (stereo not given), the Potency was “inactive”.
`CCOc1ccc(N(CC(=O)N2CCN(c3ccccc3)CC2)S(=O)(=O)c2c(C)noc2C)cc1` was tested, and the Potency was inconclusive: 56.2 µM [inhibitor, partial curve].
`O=C1NCCN(CC2CCN(CCC3CCCC3)CC2)C1=O` was tested, and the Potency was inconclusive: 89.1 µM [inhibitor, partial curve].
With `O=S(=O)(NN=C1CCCCCC1)c1ccccc1` the Potency was “inactive”.
`Cc1ccc2nc(NC(=S)NC(=O)c3cccs3)sc2c1` was tested, and the Potency was inconclusive: 39.8 µM [inhibitor, partial curve, poor fit].
